Experiment [1] addresses T1, Pif1-4myc (nuclear Pif1, wild type) (S. cerevisiae) (UniProt P07271).
T1 sequence: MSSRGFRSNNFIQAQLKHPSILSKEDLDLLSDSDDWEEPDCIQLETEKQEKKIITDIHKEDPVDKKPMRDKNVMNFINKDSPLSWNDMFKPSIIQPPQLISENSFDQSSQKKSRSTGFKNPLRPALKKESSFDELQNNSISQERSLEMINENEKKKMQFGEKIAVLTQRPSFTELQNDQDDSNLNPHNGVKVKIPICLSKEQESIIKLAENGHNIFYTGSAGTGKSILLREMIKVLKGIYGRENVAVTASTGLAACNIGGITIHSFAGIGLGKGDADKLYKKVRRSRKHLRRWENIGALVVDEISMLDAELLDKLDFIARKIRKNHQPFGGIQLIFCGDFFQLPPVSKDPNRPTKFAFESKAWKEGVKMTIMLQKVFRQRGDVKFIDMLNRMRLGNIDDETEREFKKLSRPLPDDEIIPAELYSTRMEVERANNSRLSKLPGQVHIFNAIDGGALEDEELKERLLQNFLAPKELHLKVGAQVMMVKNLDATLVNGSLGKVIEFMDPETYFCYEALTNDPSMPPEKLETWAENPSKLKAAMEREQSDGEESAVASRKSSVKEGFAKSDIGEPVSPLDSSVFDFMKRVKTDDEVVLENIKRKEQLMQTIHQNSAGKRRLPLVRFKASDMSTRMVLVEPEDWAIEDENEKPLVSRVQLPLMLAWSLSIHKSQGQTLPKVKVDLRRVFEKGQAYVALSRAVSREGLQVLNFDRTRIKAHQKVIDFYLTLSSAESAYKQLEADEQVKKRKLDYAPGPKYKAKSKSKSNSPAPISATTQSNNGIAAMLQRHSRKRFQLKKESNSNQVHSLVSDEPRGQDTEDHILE
The experiment in a line: co-IP; yeast cleared lysates, anti-myc 9E10 and Protein G Dynabeads, 2 h at 4 °C; Rfa1 detected with anti-RPA antibody.

Chains of the proteins cited; added tags and fusions are not shown. Lines headed by an entry give the natural chain unless they say otherwise; changes in a name come on top.
UniProt P22336: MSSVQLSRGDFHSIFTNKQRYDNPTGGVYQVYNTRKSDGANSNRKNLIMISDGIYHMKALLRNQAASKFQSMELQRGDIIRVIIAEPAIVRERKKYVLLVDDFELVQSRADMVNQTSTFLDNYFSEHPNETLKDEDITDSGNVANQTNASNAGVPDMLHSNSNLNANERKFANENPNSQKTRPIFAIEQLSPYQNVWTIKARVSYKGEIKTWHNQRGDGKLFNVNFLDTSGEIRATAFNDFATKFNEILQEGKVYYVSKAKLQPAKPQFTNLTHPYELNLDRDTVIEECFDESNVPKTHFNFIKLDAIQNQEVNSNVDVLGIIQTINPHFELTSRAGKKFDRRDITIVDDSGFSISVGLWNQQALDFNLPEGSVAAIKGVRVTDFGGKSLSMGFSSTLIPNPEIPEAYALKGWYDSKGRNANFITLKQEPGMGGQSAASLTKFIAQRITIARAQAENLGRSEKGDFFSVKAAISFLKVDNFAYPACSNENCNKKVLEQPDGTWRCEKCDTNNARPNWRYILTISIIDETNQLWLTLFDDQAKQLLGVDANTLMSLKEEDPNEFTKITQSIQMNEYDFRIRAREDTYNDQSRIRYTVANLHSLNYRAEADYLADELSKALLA

Experiment [2] concerns the target T2, GST-Pif1C(750–859) (S. cerevisiae) (UniProt P07271).
T2 sequence: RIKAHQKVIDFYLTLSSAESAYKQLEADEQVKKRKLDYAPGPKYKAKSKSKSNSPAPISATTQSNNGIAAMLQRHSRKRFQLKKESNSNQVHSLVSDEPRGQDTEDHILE
The experiment in a line: pull-down; GST fusions from E. coli immobilised on glutathione beads, incubated with yeast cleared lysate 2 h at 4 °C, washed twice with ELB (50 mM Tris-HCl pH 7.5, 50 mM NaCl, 5 mM EDTA, 1.5 mM BME); western blot with anti-RPA antibody; only the target purified. On the technique in general: A western blot detects proteins with antibodies after separation by electrophoresis.

For experiment [3], the target named is T3, GST-Pif1N(42–250) (S. cerevisiae) (UniProt P07271).
T3 sequence: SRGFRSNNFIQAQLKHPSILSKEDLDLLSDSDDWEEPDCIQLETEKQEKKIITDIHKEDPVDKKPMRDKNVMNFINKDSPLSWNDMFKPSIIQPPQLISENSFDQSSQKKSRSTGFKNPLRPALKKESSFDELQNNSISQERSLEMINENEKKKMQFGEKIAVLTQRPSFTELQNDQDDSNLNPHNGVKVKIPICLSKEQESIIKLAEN
Described as above.

Experiment [4] has as its target T3, GST-Pif1N(42–250) (S. cerevisiae). The experiment in a line: pull-down; GST fusions from E. coli immobilised on glutathione beads, incubated with E. coli cleared lysate holding Rfa1N-4myc 2 h at 4 °C, washed twice with ELB; myc-specific western blot; only the target purified.
Experiment [5] addresses T4, GST-Pif1N(56–77) (S. cerevisiae) (UniProt P07271).
T4 sequence: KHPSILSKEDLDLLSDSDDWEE
The description is as above.

Results are given in words; binding and its absence hold for the method and conditions named. Binding seen in cells or lysates may run through a third protein. Some binding calls cover weakened binding; strength is not graded here. Tags and fused reporters may be left off the sequences shown.

Consider “Rfa1, the largest subunit of the RPA complex (from UniProt P22336 1-621)”, for which the binding entry is “binds” in experiment [1], “no binding” in experiment [2] and “binds” in experiment [3].
In the case of “Rfa1N(1–132)-4myc (from UniProt P22336 1-132) (domain or fragment)”, the binding entry in experiment [4] and in experiment [5] was “binds” each time.

The record behind these values is article PMC11014909 (2024).
